Several values for one entry are separate records, joined by “and”; a condition that tells them apart may be missing. Equal entries are not always repeated. Out of some 150,000 compounds screened, about 540 (0.36%) showed an effect of 50% or more. The list shows a part of the results.
Test system: Plasmodium falciparum
Experiment: Primary screen in NF54 nanoGlo assay, in single point, at 2uM, 72h; a lower Z score goes with more inhibition
Format: functional, Erythrocyte
Details: timepoint 72 hour

Row | SMILES | % Inhibition [%] | Z score | % Inhibition (2 µM)
1 | C[C@]1(O)CCN(C(=O)c2ccc(N3CCCC3=O)cc2)C[C@H]1O | -7 | 0.84 | –
2 | CN(c1ccc(S(N)(=O)=O)cn1)[C@H]1CCOC1 | -30 | 3.47 | –
3 | COc1cccc(C(=O)NCC2(O)CCCC2)c1 | -10 | 1.36 | –
4 | CCOC(=O)[C@@H]1CCCCN1C(=O)Cn1cc(NC(=O)c2ccccc2)cn1 | -13 | 2.1 | –
5 | Cc1cccc(OC(C)C(=O)NC2CC3CCC2C3)c1 (configuration not stated) | -10 | 0.96 | –
6 | CNC(=O)[C@@H]1CN(Cc2ccc(Br)o2)C[C@H]1COC | -5 | 0.77 | –
7 | CCCc1cc(C(=O)N[C@H]2COCC[C@@H]2OC)cs1 | -6 | 0.75 | –
8 | CCN=C(NCCc1nc(C)no1)NCc1sccc1C | -11 | 1.04 | –
9 | CNS(=O)(=O)c1cccc(NC(=O)N2CCOCC[C@@H]2C)c1C | 5 | -0.77 | –
10 | CC(C)N(Cc1ccccn1)C(=O)c1csc(-c2ccco2)n1 | -6 | 0.91 | –
11 | CCCC(=O)NC1CCCN(C(C)c2nnnn2C2CCCCC2)C1 (configuration not stated) | -8 | 0.76 | –
12 | Cc1ccc(C(=O)Nc2cccc(COc3ccc4c(c3)OCO4)c2)cc1S(C)(=O)=O | -3 | 0.51 | –
13 | Cc1cc(F)ccc1[C@@H]1CCCN1C(=O)c1cnc2n1CCOC2 | -1 | 0.2 | –
14 | CN1CCN(C)[C@@H](CNc2nccnc2N(C)C)C1 | -6 | 0.87 | –
15 | CC(C)(NS(C)(=O)=O)C(=O)N1CCc2c(Cl)cc(F)cc2C1 | -18 | 1.96 | –
16 | CCOc1cc(C(=O)Nc2ccc3nc4c(c(Nc5ccc(OC)c(OC)c5)c3c2)CCCC4)cc(OCC)c1OCC | 93 | -11.16 | –
17 | CC(=O)N1CCO[C@H](C(=O)Nc2cccc(-n3cc[nH]c3=O)c2)C1 | -3 | 0.57 | –
18 | COCc1ncc(CNc2ncnc3sc(C)c(C)c23)c(N)n1 | -6 | 1.12 | –
19 | CC(=O)Nc1cccc(N2C(=O)[C@H](CCC(=O)N3CCc4ccccc4C3)N=C2O)c1 | – | – | -4% and -8%
20 | Cc1scc(C(=O)NC2C3CC2N(c2nc(C4CCCC4)ns2)C3)c1C (configuration not stated) | -5 | 0.65 | –
21 | O=C(Cc1ccc(Br)cc1)N(Cc1ccco1)[C@H]1CCS(=O)(=O)C1 | -2 | 0.28 | –

Row | SMILES | % Inhibition [%] | Z score | % Inhibition (2 µM)
22 | CC(C)Oc1ccc(-c2cc(C(F)(F)F)n3nc(-c4ccccc4)c(-c4ccccc4)c3n2)cc1 | -15 | 1.87 | –
23 | CC(=O)N[C@@H]1CN(Cc2c[nH]nc2-c2ccc(F)cc2)C[C@H]1CO | -20 | 3.4 | –
24 | COc1cc(N[C@H]2CCCN(c3ccc(C#N)nc3)C2)cc(OC)c1 | -9 | 0.97 | –
25 | Cc1cc(C(=O)Nc2nc(C(=O)Nc3nccs3)co2)no1 | -9 | 1.65 | –
26 | O=S(=O)(c1cnn(CC2CC2)c1)N1CCNC[C@H]1c1cccc(Cl)c1 | -14 | 1.4 | –
27 | Cc1cccc(C)c1OCCC(=O)NS(=O)(=O)c1cccnc1 | -7 | 1.16 | –
28 | Cc1cc(C)n(CCN2CCCN(C(=O)c3cccc(C(F)(F)F)c3)CC2)n1 | -13 | 2.46 | –
29 | COc1cccc(C(=O)NCc2cccnc2-c2ccc(F)cc2)c1 | -13 | 1.65 | –
30 | Cc1cc2c(cc3n2C[C@@](C)(C(=O)NC2CCCCCC2)N(CCN2CCCCCC2)C3=O)o1 | -13 | 2.36 | –
31 | CCc1csc(NC(=O)C(C)(C)NC(=O)OC(C)(C)C)n1 | -3 | 0.46 | –
32 | CC(C)(C)c1cc(-n2c(-c3c[nH]c4ccccc34)nc3ccccc32)cc(C(C)(C)C)c1O | -43 | 5.03 | –
33 | C=CCn1cc(CNCc2ncc(C)c(O)c2C)c(C)n1 | 0 | 0.06 | –
34 | CC1COC(CO)CN1CCCCC1CCOCC1 (configuration not stated) | -7 | 0.74 | –
35 | CCOC(=O)[C@@H](NC(=O)c1c[nH]c(C)cc1=O)C1CCCCCC1 | -1 | 0.17 | –
36 | CC[C@H](NC(=O)Cc1sc(N)nc1C)c1cnn(C)c1 | 0 | 0.06 | –
37 | COCc1noc(CNC(=O)C[C@H](C)n2ccnc2)n1 | -6 | 0.75 | –
38 | Cc1ccc(-n2nc3ccc(NC(=O)c4cc5ccccc5o4)cc3n2)cc1Cl | 2 | -0.37 | –
39 | Cc1noc(C)c1CN(C)C[C@H](O)COCc1ccc2c(c1)OCO2 | -2 | 0.2 | –
40 | O=C(CCCc1nnc2ccccn12)NCCc1ccccc1 | -6 | 0.7 | –
41 | CCOCC(=O)N1CCN(Cc2ccc3ncccc3c2)C[C@H](O)C1 | -11 | 1.98 | –
42 | Cc1cc(C(=O)N2CCC[C@H](C(=O)c3ccc4c5c(cccc35)CC4)C2)nc(N)n1 | -4 | 0.45 | –

Row | SMILES | % Inhibition [%] | Z score | % Inhibition (2 µM)
43 | CCNC(=O)N(C1CCN(C)CC1)C1CN(C(=O)Nc2ccc(C)c(C)c2)C1 | -2 | 0.31 | –
44 | Cc1cn2cccc(C(=O)NCC[C@H]3CCCOC3)c2n1 | 2 | -0.34 | –
45 | Cc1nc(N(CCC(N)=O)CCC(N)=O)sc1C | 3 | -0.43 | –
46 | CNC(=O)[C@@H]1C[C@@H](NCc2cccc(C(F)(F)F)c2)CN1Cc1cccc(Cl)c1 | -3 | 0.36 | –
47 | CC(C)n1cnnc1CC1CN(C(=O)Nc2cc(F)cc(F)c2)C1 | -5 | 0.86 | –
48 | Cc1cc(C#N)cc(C)c1OCc1ncnn1C(C)(C)C | -13 | 1.2 | –
49 | O=C1C2CCCCC2C(=O)N1Cc1ccccn1 (configuration not stated) | -6 | 1.23 | –
50 | O=C1C[C@@H](c2ccccc2)N(C(=O)Cc2cccnc2)CCCCCCN1 | 7 | -1.08 | –
51 | Cn1cc(CCC(=O)N2CCN(c3cc(=O)[nH]c(N)n3)CC2)cn1 | -4 | 0.8 | –
52 | Cc1nc(-c2cccc(C)c2F)c2cnn(C)c2n1 | -1 | 0.11 | –
53 | COc1cc(NC(=O)c2ccc3nsnc3c2)cc(OC)c1OC | -6 | 0.92 | –
54 | COC(=O)CN(C(=O)C1CCC1)C(C)C | -5 | 0.45 | –
55 | CC(C)Oc1ccc(C(=O)N[C@@H](C)C2CC2)nc1 | -3 | 0.41 | –
56 | COc1cccc([C@H]2OCCn3c(-c4cccc(C)c4)c4c(=O)n(C)c(=O)n(C)c4c32)c1O | 3 | -0.49 | –
57 | COc1ccc(Cn2c(C)c(C3=CCN(S(=O)(=O)c4cc(C)c(C)cc4C)CC3)c3ccccc32)cc1 | 0 | 0.05 | –
58 | CCS(=O)(=O)Nc1ccccc1-c1nc(CNC(=O)C(C)C)c(C)o1 | 4 | -0.74 | –
59 | COC1CCCCC1Nc1ccc2nccnc2n1 (configuration not stated) | 4 | -0.48 | –
60 | CC(=O)N1CC(C(=O)NC2(CNC(=O)[C@@H](C)C3CC3)CCCCC2)C1 | 19 | -2.45 | –
61 | CCn1ccc(C(=O)N2CCCN(c3nnc4ccc(Cl)cn34)CC2)n1 | -21 | 2.04 | –
62 | CC(C)[C@H](C)N(C1CC1)S(=O)(=O)c1ccc(OCC(F)(F)F)nc1 | -8 | 1.56 | –
63 | CCCCC1CCCC1NC(=O)C(C)OCC (configuration not stated) | -3 | 0.3 | –

Row | SMILES | % Inhibition [%] | Z score | % Inhibition (2 µM)
64 | O=C(CN1CCC[C@@H]1C(=O)O)NC(c1ccccc1)c1cccc(Cl)c1 (some centres not stated) | -17 | 2.26 | –
65 | Cc1oc(-c2ccsc2)nc1CN(C)[C@@H](C)c1cccs1 | -6 | 1.09 | –
66 | CC(c1ccco1)N(C)C(=O)NC1C2CCCOC2C1(C)C (configuration not stated) | -10 | 0.99 | –
67 | O=C1NC[C@@]2(CCCN(C(=O)c3[nH]cnc3-c3ccccc3)C2)O1 | -2 | 0.38 | –
68 | COc1ccccc1S(=O)(=O)N1CCC(c2cccs2)CC1 | 4 | -0.69 | –
69 | O=S(=O)(CCC(F)(F)F)N1CC[C@H](Oc2ncc(Br)cn2)C1 | -10 | 1.49 | –
70 | Cc1cc(C)c(-c2cn(Cc3ccccn3)nn2)c(-n2cccn2)c1 | 1 | -0.17 | –
71 | Cc1noc(Cl)c1CC(=O)N1CCCC(C)(C)CC1 | 44 | -6.85 | –
72 | CCC(=O)Nc1ccc(N2CCCN(C(=O)Nc3ccccc3F)CC2)c(C(=O)N2CCCCC2)c1 | -7 | 1.05 | –
73 | COC(=O)c1ccc(C)c2c1N(Cc1nnn(C)n1)CCC2 | -10 | 1.35 | –
74 | Cc1nn(CC(=O)N2CCOC[C@@H]2CCO)cc1-c1ccccc1 | -7 | 1.14 | –
75 | CCCN(CC1CC1)C(=O)c1cnn(-c2ncc(C)c(-c3cccs3)n2)c1C | 4 | -0.43 | –
76 | C[C@@H](c1ccc(Cl)cc1)N(C(=O)c1ccc(C(N)=O)cn1)C1CC1 | 6 | -1.15 | –
77 | Cc1oc2c(c1C(=O)NC1CCCCC1)CN(Cc1ccccc1)CC2 | -9 | 0.9 | –
78 | O=S(=O)(c1ccc2c(c1)OCCO2)N1CCO[C@H](c2ccc(F)cc2)C1 | 33 | -4.39 | –
79 | O=C(NCC1CCN(c2cc(-c3cccnc3)n[nH]2)CC1)c1ccncc1 | -12 | 1.18 | –
80 | c1cnc2cc(-c3noc(C4CCCCCC4)n3)ccc2n1 | -14 | 2.33 | –
81 | Cc1nn(C)c2[nH]nc(NC(=O)c3ccccn3)c12 | -14 | 1.96 | –
82 | Cc1c(C#N)c(NC(=O)CN2CCCCCC2)n(C[C@H]2CCCO2)c1C | -9 | 1.77 | –
83 | O=C(Nc1ccn(-c2ccccc2)n1)NC1CC1c1cccc(Cl)c1 (configuration not stated) | -11 | 1.42 | –
84 | O=C(C1CCCC1)N1CCC[C@@H]1CCc1noc(C2CC2)n1 | -8 | 1.37 | –
